Out of some 310,000 compounds screened, about 11,000 (3.5%) were called active. The inconclusive results got no clear call from the source; some entries with a clear call stand among them for comparison. Calls come from the whole dose curve; as a rule, active = well fitted inhibition curve with a large enough effect; inconclusive = small, poorly fitted or top-dose-only effect, or effect the other way; inactive = flat fitted curve, though single readings scatter. Potencies of inconclusive entries are left out as doubtful fits.
Assay: VP16 counterscreen qHTS for inhibitors of ROR gamma transcriptional activity;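 note: Gal4-VP16 expression switched on by copper sulfate through the metallothionein promoter; nearly all actives have a fitted effect of over 50% in size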
Details: Drosophila S2 Gal4-VP16 UAS-luciferase, luminescence, 20 h; series mostly up to 53.6 µM
In the case of `Cc1c(Cl)cccc1NC(=O)NCc1ccc(F)cc1`, the Potency is reported as “inactive”.
For `C=CCN(C(=O)Cn1ncc2c1-c1cc(C)ccc1OC2)c1ccccc1`, the Potency was inconclusive [inhibitor, single point].
For `c1ccc(CCCc2nc(-c3ccccn3)no2)cc1`, the Potency was inconclusive [activator, single point].
For `Cc1ccc2nc(NC(=O)CSCC(=O)OCC(=O)c3ccccc3)sc2c1`, the Potency was active: 2.24 µM.
In the case of `Cc1cccc(N=Cc2[nH]c3ccc(Br)c(Cl)c3c2O)c1`, the Potency is reported as inconclusive [inhibitor, single point].
For `COCCN=C1Sc2nc3ccc(C)cc3cc2CN1Cc1cccs1`, the Potency was inconclusive [activator, single point].
With `CCCn1c(=O)c2sccc2n2c(CCCC(=O)NCc3ccco3)nnc12` the Potency was “inactive”.
In the case of `CCCc1cc(C(=O)Nc2sc(C)c(C)c2C(=O)OCC)no1`, the Potency is reported as “inactive”.
For `COc1ccc(-c2nc3ncccn3c2Nc2ccc3c(c2)OCCO3)cc1`, the Potency was inconclusive [activator, single point].
For `Cc1ccc(NC(=S)N2CCN(c3ncccn3)CC2)c(C)c1`, the Potency was inconclusive [inhibitor, single point].
In the case of `Cc1ccc(C(=O)NNc2cc(N3CCCC3)nc(N3CCCC3)n2)cc1`, the Potency is reported as inconclusive [inhibitor, single point].
With `O=C(Nc1cccc(S(=O)(=O)N2CCCCC2)c1)Nc1ccc(Cl)cc1Cl` the Potency was inconclusive [inhibitor, single point].
In the case of `Cc1cccc(OCc2nc(-c3ccc(Br)o3)no2)c1`, the Potency is reported as “inactive”.
In the case of `Cc1noc(/C=C/N(C)C)c1S(=O)(=O)N1CCCC(C(=O)Nc2ccc3c(c2)OCO3)C1` (stereo not drawn), the Potency is reported as “inactive”.
For `COCCN(CCOC)S(=O)(=O)c1ccc(C(=O)Nc2nnc(C3CC3)o2)cc1`, the Potency was active: 3.55 µM.
In the case of `Cc1c(Cl)c([N+](=O)[O-])nn1CCCC(=O)NC(C)c1ccccc1` (stereo not drawn), the Potency is reported as inconclusive [inhibitor, single point].
In the case of `COC(=O)C1=C(C)N(c2ccccc2)C(=S)NC1c1ccccc1C(F)(F)F` (stereo not drawn), the Potency is reported as inconclusive [inhibitor, single point].
In the case of `CC(C)N1CCc2c(sc(NC(=O)c3cc(-c4cccs4)nc4ccccc34)c2C(N)=O)C1`, the Potency is reported as inconclusive [inhibitor, single point].
For `CCOc1ccc(CN2CCN(C3CCC3)CC2CCO)cc1` (stereo not drawn), the Potency was “inactive”.
For `O=C(NCC(=O)N1CCN(c2ccccc2O)CC1)c1ccc2ccccc2c1`, the Potency was “inactive”.
In the case of `CCOc1ccc(-c2[nH]ncc2Oc2cccc(OC)c2)c(O)c1`, the Potency is reported as inconclusive [inhibitor, single point].
For `CC(C)(C)c1ccc(/C=N/N2C(=O)CSC2=S)cc1`, the Potency was inconclusive [inhibitor, single point].
With `O=C(Oc1c(CN2CCOCC2)cc(Cl)c2cccnc12)c1ccccc1F` the Potency was active: 2.24 µM.
In the case of `O=S(=O)(Cc1ccc(Cl)cc1)Nc1ccc2c(c1)OCO2`, the Potency is reported as “inactive”.
In the case of `Cc1cc(C)c2sc(NNC(=O)c3ccc(S(=O)(=O)N4CCc5ccccc5C4)cc3)nc2c1`, the Potency is reported as active: 5.01 µM.
In the case of `Nc1c(C(=O)NCc2ccc3c(c2)OCO3)nnn1-c1ccc(OC(F)(F)F)cc1`, the Potency is reported as inconclusive [inhibitor, full curve, poor fit].
For `Cc1ccc(C)c(S(=O)(=O)NCc2ccc(C(=O)N3CCC(Cc4ccccc4)CC3)cc2)c1`, the Potency was “inactive”.
In the case of `Cc1nc2ccc(NC(=S)NCCCO)cc2nc1C`, the Potency is reported as “inactive”.
With `CCC(NC(=S)NCc1ccc(F)cc1)c1ccccc1` (stereo not drawn) the Potency was active: 3.16 µM.
With `Cc1ccc(-c2nc3ccccc3o2)cc1NC(=S)NC(=O)c1cc2ccccc2o1` the Potency was inconclusive [inhibitor, full curve, poor fit].
In the case of `Cc1cccc(NC2=NC(=S)N(CC#N)C23CCCCC3)c1`, the Potency is reported as inconclusive [inhibitor, single point].
For `COc1cc(C2c3cc4c(cc3C(OC3OC5COC(c6cccs6)OC5C(O)C3O)C3COC(=O)C23)OCO4)cc(OC)c1O` (stereo not drawn), the Potency was inconclusive [inhibitor, partial curve].
With `O=C(CSc1ccc2ccccc2c1)Nn1cnnc1` the Potency was “inactive”.
For `CCOC(=O)Cc1ccc(NS(=O)(=O)c2ccc(SC)cc2)cc1`, the Potency was “inactive”.
In the case of `O=C(OCc1ccccc1)/C(=C/c1ccc(Cl)cc1)NC(=O)c1ccccc1Cl`, the Potency is reported as inconclusive [inhibitor, single point].
With `Cc1cccc(NC(=O)CCCN2C(=O)C(c3ccccc3)Oc3cccnc32)c1C` (stereo not drawn) the Potency was “inactive”.
In the case of `CCn1c(-c2nn(C)cc2Cl)n[nH]c1=S`, the Potency is reported as inconclusive [inhibitor, single point].
For `O=c1cnc(-c2ccc(Cl)cc2)cn1O`, the Potency was inconclusive [inhibitor, partial curve].
For `COc1ccc(/C=C2/SC(=S)N(c3ccc(S(=O)(=O)Nc4nccs4)cc3)C2=O)cc1`, the Potency was inconclusive [inhibitor, single point].
In the case of `CS(=O)(=O)n1nc(OC(=O)c2cccc3ccccc23)cc1N`, the Potency is reported as “inactive”.
With `CSc1nnc(NC(=O)c2nc(S(=O)(=O)Cc3ccccc3)ncc2Cl)s1` the Potency was inconclusive [inhibitor, single point].
With `COC(=O)c1c(C)[nH]c(C(=O)N2CCN(c3ccc(OC)cc3)CC2)c1C` the Potency was “inactive”.
In the case of `Nc1cccnc1Sc1cc(Cl)c(Cl)cc1Cl`, the Potency is reported as “inactive”.
For `Cc1ccc2nc(-c3cccc(S(=O)(=O)N4CCCC4)c3)cn2c1`, the Potency was inconclusive [inhibitor, single point].
In the case of `Cc1ccccc1C(=O)Nc1ccc2c(c1)OCO2`, the Potency is reported as inconclusive [inhibitor, partial curve].
With `CCCCc1nc(N2CCN(C(=O)c3ccco3)CC2)c(C#N)c2c1CCCC2` the Potency was inconclusive [inhibitor, single point].
With `COc1ccc(C(=O)NNC(=S)NC(=O)C(C)(C)C)cc1` the Potency was “inactive”.
For `Cc1c(C(=O)O)[nH]c2ccc([N+](=O)[O-])cc12`, the Potency was inconclusive [inhibitor, partial curve].

— PubChem BioAssay AID2546 (National Center for Advancing Translational Sciences (NCATS), 2010)
Potency is the fitted concentration of half-maximal effect; tags give direction and shape of the fitted curve.
